Measurements reported in ChEMBL document CHEMBL1201862, “PubChem BioAssay data set” (2004).
Several values for one entry are separate records, joined by “and”; a condition that tells them apart may be missing. Equal entries are not always repeated.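 Five compound concentrations were applied to cells in 96-well plates for 48 hours; endpoints were derived by simple linear interpolation of the resulting dose-response curve. Here, GI50 denotes the concentration required for 50% inhibition of growth.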 Activity calls are given as the source filed them. Rule as the data show it: active = GI50 up to about 1.1 µM and inactive = higher.

Each molecule was assayed on NCI-H322M (assay: DTP human tumour cell line panel, 48 h).
For `CCCCCN(CCCCC)C(=O)[C@@H](CCC(=O)O)NC(=O)c1cc2ccccc2[nH]1`, the GI50 was inactive: 30.5 µM. With `O=[N+]([O-])c1ccc(/C=C/c2cc(-c3ccccc3)nc3ccc4ccccc4c23)cc1` the GI50 was inactive: > 100 µM. In the case of `CCn1c2ccccc2c2nnc(NCCCO)nc21`, the GI50 is reported as inactive: > 100 µM. With `O=[N+]([O-])c1ccc(-[n+]2ccc3ccccc3c2)c([N+](=O)[O-])c1` the GI50 was inactive: 12.9 µM. In the case of `CN(CCNC(=O)c1c[nH]c2c1ccc1ccccc12)CCNC(=O)c1c[nH]c2c1ccc1ccccc12`, the GI50 is reported as inactive: 1.97 µM. For `O=C(CCN1CCOCC1)Nc1ccc2sc3ccccc3c(=O)c2n1`, the GI50 was inactive: 53.5 µM. `C/C(CC(=O)Nc1ccc(C)c(C)c1)=N\NC(N)=O` was tested, and the GI50 was inactive: > 100 µM. With `S=C(Nc1ccccc1)N(/N=C/C=C/c1ccccc1)c1nnc(-c2ccccc2)c(-c2ccccc2)n1` the GI50 was inactive: 96.2 µM. With `COc1cc(Cl)c2c3c(c(C(=O)c4ccccc4)oc13)CCC2` the GI50 was inactive: > 100 µM. In the case of `CC1=NN(C(=O)CC(=O)N(C(=O)c2ccccc2Cl)c2ccc(C)cc2)C(=O)C1/N=N/c1ccc([N+](=O)[O-])cc1` (stereo unspecified), the GI50 is reported as inactive: > 69.2 µM. In the case of `Cc1cc(C)nc(NS(=O)(=O)c2ccc(NC(=O)c3cccc4c(Nc5ccc(S(=O)(=O)N=C(N)N)cc5)c5ccc(Cl)cc5nc34)cc2)n1`, the GI50 is reported as inactive: 53.6 µM. `O=C1/C(=C/c2ccc(OC(=O)c3ccc(Cl)cc3)cc2)CCC/C1=C\c1ccc(OC(=O)c2ccc(Cl)cc2)cc1` was tested, and the GI50 was inactive: > 100 µM. For `O=c1ccs[nH]1`, the GI50 was inactive: 45.2 µM. For `CCC(C)C(=O)c1c(O)c(C/C=C(\C)CCC=C(C)C)c(O)c2c(C(O)CC)cc(=O)oc12` (stereo unspecified), the GI50 was inactive: 3.18 µM. With `Cc1cc(N(CCC#N)CCC#N)ccc1/C=C(\N=[N+]=[N-])C(=O)NC(=O)COc1ccccc1` the GI50 was inactive: > 100 µM. `CC(=O)/C(=N\O)C(=O)Nc1ccc(Cl)cc1Cl` was tested, and the GI50 was inactive: > 100 µM. In the case of `O=C(/C=C/c1ccccc1)CCN1CCCCC1`, the GI50 is reported as inactive: > 100 µM. For `COc1cccc(C2CC(C)(N3CCCC3)Oc3cc4c(cc32)OCO4)c1O` (stereo unspecified), the GI50 was inactive: 40.2 µM. With `Cc1ccc2cccc(OC(=O)c3cc4c(cc3Cl)Sc3nccn3S4(=O)=O)c2n1` the GI50 was inactive: 13.8 µM. In the case of `COc1ccc(C2c3cc4c(cc3OC(NNS(=O)(=O)c3ccc(C)cc3)C2C)OCO4)cc1` (stereo unspecified), the GI50 is reported as inactive: > 100 µM. In the case of `O=C(Nc1nncs1)NS(=O)(=O)n1c(=S)sc2ccccc21`, the GI50 is reported as inactive: > 100 µM. For `COCN1C(=O)C2CC(/C=C/C(N)=O)=CN2C(=O)c2ccccc21` (stereo unspecified), the GI50 was inactive: > 100 µM. For `COc1cc2c3cc1Oc1c(OC)c(OC)cc4c1C(Cc1ccc(O)c(c1)Oc1ccc(cc1)CC3N(C)CC2)CN(C)C4` (stereo unspecified), the GI50 was inactive: 17.3 µM. For `CC(C)(C)C1=C(Br)C(OC(=O)C(F)(F)F)(C(C)(C)C)OP1(=O)c1ccccc1` (stereo unspecified), the GI50 was inactive: 46.3 µM. For `COC(=O)c1nc(-c2ccc(Cl)c(Cl)c2)nc2ccc(Cl)cc12`, the GI50 was inactive: > 100 µM. `CCOC(=O)/C(C(C)=O)=C1/N[C@H](C(=O)OCC)CS1` was tested, and the GI50 was inactive: > 100 µM. In the case of `CC1=NN(c2nc(N)nc(/C(C#N)=C/c3ccncc3)n2)C(C)(C)C1`, the GI50 is reported as inactive: > 100 µM. In the case of `c1ccc2c3c(ccc2c1)-c1[nH]ncc1CCO3`, the GI50 is reported as inactive: 43.7 µM. In the case of `CCOC(=O)/C=C(\C(=O)OCC)n1ccc(=O)n(Cc2cn(CCCCOC(C)=O)nn2)c1=O`, the GI50 is reported as inactive: 19.5 µM. For `O=c1cc(O)ccn1C1C=C(CO)C(O)C1O` (stereo unspecified), the GI50 was inactive: > 625 µM. `CC(=O)OCC1OC(SC2=N/C(=C\c3ccc(Br)s3)C(=O)N2CN2CCOCC2)C(OC(C)=O)C(OC(C)=O)C1OC(C)=O` (stereo unspecified) was tested, and the GI50 was inactive: 17.2 µM. In the case of `NC(=S)N/N=C1\C(=O)N(c2cccc([N+](=O)[O-])c2)C(=O)C1C(=O)Nc1cccc([N+](=O)[O-])c1` (stereo unspecified), the GI50 is reported as inactive: > 100 µM. `CCOC(=O)CN1C(=O)c2ccc(NC(=O)C(=O)O)cc2S1(=O)=O` was tested, and the GI50 was inactive: > 100 µM. With `NC(=O)C#CC(N)=O` the GI50 was inactive: > 100 µM and inactive: 187 µM. In the case of `COc1cc(C2C(Cl)C(=O)N2c2c(C)n(C)n(-c3ccccc3)c2=O)ccc1O` (stereo unspecified), the GI50 is reported as inactive: 58.3 µM. `COc1cc(/C=C(\C#N)C(=O)c2ccccc2)ccc1OCc1ccccc1` was tested, and the GI50 was inactive: > 100 µM. In the case of `CCOC(=O)c1c(-c2ccccc2)oc(-c2ccccc2)c1C(=O)OCC`, the GI50 is reported as inactive: > 100 µM. With `COC(=O)CCC(NC(=S)N/N=C(\C)c1nccs1)C(=O)OC` (stereo unspecified) the GI50 was inactive: 60.1 µM. With `O=[N+]([O-])C(=C(Cl)Cl)C(Cl)=C(Cl)Cl` the GI50 was inactive: 4.7 µM. `CC(C)(C)OC(=O)N(O)[C@@H]1CC[C@H](n2cnc3c(N)ncnc32)C1` was tested, and the GI50 was inactive: > 100 µM. `c1ccc(CCN2CCN=C2Cc2ccccc2)cc1` was tested, and the GI50 was inactive: > 100 µM. In the case of `O=C(/C=C/c1ccc(Cl)c(Cl)c1)c1ccccc1Cl`, the GI50 is reported as inactive: 17.1 µM. With `N#CC(c1cc2c(cc1Br)OCO2)N1CCOCC1` (stereo unspecified) the GI50 was inactive: 34.2 µM. `CC(=O)NNc1nc(C)c(C(/C=C/c2ccc([N+](=O)[O-])cc2)=N/N)s1` was tested, and the GI50 was inactive: 84.3 µM. With `CC1=[N+](C)CCN1C` the GI50 was inactive: > 100 µM. With `FC(F)(F)c1cc(N(C2c3ccccc3C=Cc3ccccc32)P(Cl)Cl)cc(C(F)(F)F)c1` the GI50 was inactive: 22.6 µM. With `Nc1nccc(NCC2(CO)CCC2)n1` the GI50 was inactive: > 100 µM. For `CCOC(=O)[C@@]12C(C)=CC(=O)O[C@]1(C)C1C(=O)NC(=O)C12` (stereo partly specified), the GI50 was inactive: > 100 µM. For `CC1(C)CC(=O)C2=C(C1)c1c(ccc3ccccc13)NC2c1cn(Cc2ccc(Cl)cc2)c2ccccc12` (stereo unspecified), the GI50 was inactive: 67.9 µM. `Cc1cc(C)c(C#N)c(SC(=S)NC(=O)c2ccccc2)n1` was tested, and the GI50 was inactive: > 100 µM. For `CC(C)(C)CNCCCNc1ccc(Cl)cc1`, the GI50 was inactive: 36.2 µM. `NS(=O)(=O)c1nnc(NSc2ccc([N+](=O)[O-])cc2)s1` was tested, and the GI50 was inactive: > 100 µM. With `CCOC(=O)C(C(=O)OCC)C(NC(=O)Nc1cc(C(F)(F)F)ccc1OC)(C(F)(F)F)C(F)(F)F` the GI50 was inactive: 26.7 µM. `COC1CC(n2ccc(=O)[nH]c2=O)OC1CO` (stereo unspecified) was tested, and the GI50 was inactive: > 100 µM. For `C=CCOc1ccc(C2C(C(=O)OCC)C(=O)CC(C)(O)C2C(=O)OCC)cc1OC` (stereo unspecified), the GI50 was inactive: > 100 µM. With `COc1ccc2[nH]c3c(c2c1)CC(=O)N1CCC[C@H](C1)CC31OCCCO1` the GI50 was inactive: > 100 µM. In the case of `Cn1c(-c2ccc[se]2)ccc1-c1ccc(C=O)[se]1`, the GI50 is reported as inactive: > 100 µM. `CCN(CC)CCC(=O)c1ccc(Oc2ccccc2)cc1` was tested, and the GI50 was inactive: > 100 µM. With `Cc1ccn2c(=O)cc(CN3CCOCC3)nc2c1` the GI50 was inactive: > 100 µM. In the case of `CCOP(=O)(OCC)C(c1ccccc1)N(C(=O)NC(F)(F)F)c1cccc(F)c1` (stereo unspecified), the GI50 is reported as inactive: > 100 µM. `COc1ccc(C2C(=O)C(Cl)N2Nc2nc(C)cc(O)n2)cc1OC` (stereo unspecified) was tested, and the GI50 was inactive: 49.7 µM. For `C=CC(=O)NCCSCCCOC1(C(=O)O)CC(O)C(NC(C)=O)C(C(O)C(O)CO)O1` (stereo unspecified), the GI50 was inactive: > 100 µM. For `C[N+]1(CCC[N+]2(C)CC3C4C=CC(CC4)C3C2)CCOCC1` (stereo unspecified), the GI50 was inactive: > 100 µM. With `COc1cc(Nc2nc3cc(N)cc(N)c3nc2-c2ccccc2)cc(OC)c1OC` the GI50 was inactive: 24.8 µM. With `O=C1Nc2ccccc2/C1=N/Nc1ccccc1[N+](=O)[O-]` the GI50 was inactive: 59.6 µM. For `CCC1(O)C(=O)OCc2c1cc1n(c2=O)Cc2cc3cc(OC)c(OC)cc3nc2-1` (stereo unspecified), the GI50 was inactive: 87.3 µM.
